Experiment [1] has as its target T1, human transferrin receptor (human, UniProt P02786).
T1 construct: whole, on cells; also called hTfR; human TfR
Put plainly: FACS on CHO cells stably overexpressing human TfR, PE anti-human IgG Fc secondary. An excerpt:
(§1) We generated a variety of insect cell (S2)-derived constructs and analysed the purified molecules to assess their TfR binding and enzymatic properties (FIG. 1B-D). […] We benchmarked the enzymatic properties of all molecules described in the manuscript to the conventional ERT molecule imiglucerase (commercially available as Cerezyme). There is a tendency for the Brain Shuttle constructs to be more efficient in terms of the ratio of turnover to affinity to resorufin-β-D-glucopyranoside. Naked GCase constructs and TfR non-binder (GCase-NB) are very similar to imiglucerase (FIG. 1C). In addition, initial testing by spiking the produced murine and human GCase-BS constructs into 10% mouse plasma for a period of 15 minutes and both stability and enzymatic activity were maintained (FIG. 1E).
(§2) The binding of the GCase-BS fusions was tested using mouse-TfR expressing cell line BA/F3 (DSMZ, ACC-300) or human-TfR expressing CHO cells (ATCC, CCL-61, transfected to stably overexpress human TfR). Briefly, suspension cells were harvested, counted, checked for viability and re-suspended at 2 million cells per ml in FACS buffer (PBS with 0.1% BSA). 100 μl of the cell suspension (containing 0.2 million cells) were incubated in round-bottom 96-well plates for 1 hour at 4° C. with increasing concentrations of the GCase fusions (10 pM to 1 μM).

The target in experiment [2] is T1, human transferrin receptor. In words: cell-based or functional assay.
Experiment [3] addresses T2, mouse transferrin receptor (mouse, UniProt Q62351). Put plainly: cell-based or functional assay.
Experiment [4] concerns the target T2, mouse transferrin receptor. Put plainly: FACS on mouse-TfR expressing BA/F3 cells, PE anti-human IgG Fc secondary.
Description: as §1, §2

T1 sequence (P02786 whole entry): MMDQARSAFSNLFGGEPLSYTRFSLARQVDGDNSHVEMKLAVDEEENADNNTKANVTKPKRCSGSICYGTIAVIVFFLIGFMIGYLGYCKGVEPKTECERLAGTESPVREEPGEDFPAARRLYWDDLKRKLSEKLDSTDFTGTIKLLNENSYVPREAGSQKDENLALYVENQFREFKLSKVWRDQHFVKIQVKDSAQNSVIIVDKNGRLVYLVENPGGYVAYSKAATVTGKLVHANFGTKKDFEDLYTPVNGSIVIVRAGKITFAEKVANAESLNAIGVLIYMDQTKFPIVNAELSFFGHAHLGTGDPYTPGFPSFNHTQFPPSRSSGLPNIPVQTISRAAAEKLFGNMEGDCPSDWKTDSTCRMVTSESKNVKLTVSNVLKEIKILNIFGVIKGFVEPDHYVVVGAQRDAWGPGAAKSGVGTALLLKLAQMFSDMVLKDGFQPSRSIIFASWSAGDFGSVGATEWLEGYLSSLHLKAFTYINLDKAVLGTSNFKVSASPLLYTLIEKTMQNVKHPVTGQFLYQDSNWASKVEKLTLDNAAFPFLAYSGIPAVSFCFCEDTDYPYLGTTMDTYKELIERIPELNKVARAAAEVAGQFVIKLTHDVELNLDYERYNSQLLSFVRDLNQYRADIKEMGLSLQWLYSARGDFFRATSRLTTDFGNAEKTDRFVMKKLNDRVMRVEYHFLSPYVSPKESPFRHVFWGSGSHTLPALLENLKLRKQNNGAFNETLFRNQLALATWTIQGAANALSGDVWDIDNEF
T2 sequence (Q62351 whole entry): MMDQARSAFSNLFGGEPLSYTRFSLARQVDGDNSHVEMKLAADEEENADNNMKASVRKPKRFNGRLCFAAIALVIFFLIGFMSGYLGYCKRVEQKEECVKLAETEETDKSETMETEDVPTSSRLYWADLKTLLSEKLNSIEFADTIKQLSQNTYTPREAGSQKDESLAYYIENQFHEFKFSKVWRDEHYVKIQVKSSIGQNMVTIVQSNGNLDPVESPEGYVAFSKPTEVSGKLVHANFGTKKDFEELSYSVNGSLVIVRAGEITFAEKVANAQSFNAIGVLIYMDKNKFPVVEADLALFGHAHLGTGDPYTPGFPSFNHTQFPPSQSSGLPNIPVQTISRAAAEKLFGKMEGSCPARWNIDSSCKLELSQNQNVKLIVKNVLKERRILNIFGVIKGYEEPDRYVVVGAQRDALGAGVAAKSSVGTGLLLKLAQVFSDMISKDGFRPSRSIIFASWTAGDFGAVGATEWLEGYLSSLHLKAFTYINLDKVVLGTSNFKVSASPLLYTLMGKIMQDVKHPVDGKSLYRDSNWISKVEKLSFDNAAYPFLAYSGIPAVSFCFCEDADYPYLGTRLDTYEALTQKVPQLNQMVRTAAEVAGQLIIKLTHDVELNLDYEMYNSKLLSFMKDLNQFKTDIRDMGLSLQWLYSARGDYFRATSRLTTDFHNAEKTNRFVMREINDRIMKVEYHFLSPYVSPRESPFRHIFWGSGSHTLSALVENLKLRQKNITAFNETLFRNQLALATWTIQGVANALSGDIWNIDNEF

B1: hGCase-hBS (Fc fusion)
chain 1: ARPCIPKSFGYSSVVCVCNATYCDSFDPPTFPALGTFSRYESTRSGRRMELSMGPIQANHTGTGLLLTLQPEQKFQKVKGFGGAMTDAAALNILALSPPAQNLLLKSYFSEEGIGYNIIRVPMASCDFSIRTYTYADTPDDFQLHNFSLPEEDTKLKIPLIHRALQLAQRPVSLLASPWTSPTWLKTNGAVNGKGSLKGQPGDIYHQTWARYFVKFLDAYAEHKLQFWAVTAENEPSAGLLSGYPFQCLGFTPEHQRDFIARDLGPTLANSTHHNVRLLMLDDQRLLLPHWAKVVLTDPEAAKYVHGIAVHWYLDFLAPAKATLGETHRLFPNTMLFASEACVGSKFWEQSVRLGSWDRGMQYSHSIITNLLYHVVGWTDWNLALNPEGGPNWVRNFVDSPIIVDITKDTFYKQPMFYHLGHFSKFIPEGSQRVGLVASQKNDLDAVALMHPDGSAVVVVLNRSSKDVPLTIKDPAVGFLETISPGYSIHTYLWHRQGSGGGGSGGSG[human IgG1 Fc with changes not spelt out]
chain 2: ADKTHTCPPCPAPEAAGGPSVFLFPPKPKDTLMISRTPEVTCVVVDVSHEDPEVKFNWYVDGVEVHNAKTKPREEQYNSTYRVVSVLTVLHQDWLNGKEYKCKVSNKALGAPIEKTISKAKGQPREPQVCTLPPSRDELTKNQVSLSCAVKGFYPSDIAVEWESNGQPENNYKTTPPVLDSDGSFFLVSKLTVDKSRWQQGNVFSCSVMHEALHNRFTQKSLSLSPGGGSGGGGSGGGGSGGGGSQSMQESGPGLVKPSQTLSLTCTVSGFSLSSYAMSWIRQHPGKGLEWIGYIWSGGSTDYASWAKSRVTISKTSTTVSLKLSSVTAADTAVYYCARRYGTSYPDYGDASGFDPWGQGTLVTVSSASVAAPSVFIFPPSDEQLKSGTASVVCLLNNFYPREAKVQWKVDNALQSGNSQESVTEQDSKDSTYSLSSTLTLSKADYEKHKVYACEVTHQGLSSPVTKSFNRGECGGGGSGGGGSGGGGSGGGGSGGGGSGGGGSGGAIQLTQSPSSLSASVGDRVTITCRASQSISSYLAWYQQKPGKAPKLLIYRASTLASGVPSRFSGSGSGTDFTLTISSLQPEDFATYYCQQNYASSNVDNTFGGGTKVEIKSSASTKGPSVFPLAPSSKSTSGGTAALGCLVKDYFPEPVTVSWNSGALTSGVHTFPAVLQSSGLYSLSSVVTVPSSSLGTQTYICNVNHKPSNTKVDKKVEPKSC
notes: also called human GCase Brain Shuttle; GCase-BS (human)
In the case of B1, in experiment [1], the EC50 turned out to be 15 nM. Also, the “GlcSph reduction after 48 h in H4 cells, IC50 fold against imiglucerase” value in experiment [2] was roughly 5 fold.

B2: mGCase-mBS (Fc fusion)
chain 1: AQPCIPKSFGYSSVVCVCNASYCDSLDPVTLPALGTFSRYESTRRGRRMELSVGAIQANRTGTGLLLTLQPEKKFQKVKGFGGAMTDATALNILALSPPTQKLLLRSYFSTNGIEYNIIRVPMASCDFSIRVYTYADTPNDFQLSNFSLPEEDTKLKIPLIHQALKMSSRPISLFASPWTSPTWLKTNGRVNGKGSLKGQPGDIFHQTWANYFVKFLDAYAKYGLRFWAVTAENEPTAGLFTGYPFQCLGFTPEHQRDFISRDLGPALANSSHDVKLLMLDDQRLLLPRWAEVVLSDPEAAKYVHGIAVHWYMDFLAPAKATLGETHRLFPNTMLFASEACVGSKFWEQSVRLGSWDRGMQYSHSIITNLLYHVTGWTDWNLALNPEGGPNWVRNFVDSPIIVDIPKDAFYKQPMFYHLGHFSKFIPEGSQRVALVASESTDLETVALLRPDGSAVVVVLNRSSEDVPLTISDPDLGFLETVSPGYSIHTYLWRRQGSLPETGGGDKTHTCPPCPAPEAAGGPSVFLFPPKPKDTLMISRTPEVTCVVVDVSHEDPEVKFNWYVDGVEVHNAKTKPREEQYNSTYRVVSVLTVLHQDWLNGKEYKCKVSNKALGAPIEKTISKAKGQPREPQVCTLPPSRDELTKNQVSLSCAVKGFYPSDIAVEWESNGQPENNYKTTPPVLDSDGSFFLVSKLTVDKSRWQQGNVFSCSVMHEALHNRFTQKSLSLSPGK
chain 2: [human IgG1 Fc with changes not spelt out]GGSGGGGSGGGGSGGGGSDIQMTQSPASLSASLEEIVTITCQASQDIGNWLAWYQQKPGKSPQLLIYGATSLADGVPSRFSGSRSGTQFSLKISRVQVEDIGIYYCLQAYNTPWTFGGGTKVEIKRTVAAPSVFIFPPSDEQLKSGTASVVCLLNNFYPREAKVQWKVDNALQSGNSQESVTEQDSKDSTYSLSSTLTLSKADYEKHKVYACEVTHQGLSSPVTKSFNRGECGGGGSGGGGSGGGGSGGGGSGGGGSGGGGSGGEVQLVESGGGLVQPGNSLTLSCVASGFTFSNYGMHWIRQAPKKGLEWIAMIYYDSSKMNYADTVKGRFTISRDNSKNTLYLEMNSLRSEDTAMYYCAVPTSHYVVDVWGQGVSVTVSSASTKGPSVFPLAPSSKSTSGGTAALGCLVKDYFPEPVTVSWNSGALTSGVHTFPAVLQSSGLYSLSSVVTVPSSSLGTQTYICNVNHKPSNTKVDKKVEPKSC
notes: The exact chain make-up in the assay is therefore uncertain; also called murine GCase Brain Shuttle; GCase-BS (mouse)
For the molecule B2, the “GlcSph reduction after 48 h in mouse cortical neurons, IC50 fold against mGCase alone” value in experiment [3] is greater than 100 fold. The same molecule yielded an EC50 in experiment [4] of 21 nM.

(Values after patent US20250034538A1 (Hoffmann-La Roche, published 2025).)
